Variants at the background level are over-represented here.
B1: tRNA (parent)
chain: CUCUCGGUAGCCAAGUUGGUUUAAGGCGCAAGACUUUAAUUUAUCACUACGAAAUCUUGAGAUCGGGCGUUCGACUCGCCCCCGGGAGAUUUUUUCCUCGAGCAA

Variants of: B1
Test: nonsense suppression (GFP-seq) (ratio to wild type); higher = more function; SUP4oc tRNA, yeast GFP reporter sort-seq
Procedure, shortened: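 Nonsense suppression (GFPSEQ) is the median GFP/RFP ratio of each sorting bin, weighted by the variant's estimated share of cells in that bin and expressed relative to the unmutated parent tRNA. Yeast strains carried genome-integrated variants of an ochre-suppressor tRNA from a library with ~3% random mutations, plus a galactose-driven GFP ochre reporter and RFP, and were grown in raffinose/galactose medium containing 80 mg/L adenine. Cells were sorted into GFP/RFP bins, each bin was Illumina-sequenced (phred ≥30), and variants were kept only with ≥100 reads and ≥30 cells.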

Nonsense suppression, ≤ 0.026:
CUCUCGGUAGCCAAGUUGGUUUAACGCGCAAGACUUUAAUUUAUCACUACGAAAUCUUGAUAUCGGUCGUUCGACUCGCCCCCGGGAGAUUUUUUCCUCGAGCAA [G25C G61U G67U]
CUCUCGGUAGCCAAGUUGGUUUAACGCGCAAGACUUUAAUUUAUCACUACGAAAUCUUGAGAUCGGGCUUUCGACUCGCCCCCGGGAGAUUUUUUCCUCGAGCAA [G25C G69U]
CUCUCGGUAGCCAAGUUGGUUUAACGCGCAAGACUUUAAUUUAUCACUACGAAAUCUUGAGAUCGGGCGUUCGACUCACCCCCGGGAGAUUUUUUCCUCGAGCAA [G25C G78A]
CUCUCGGUAGCCAAGUUGGUUUAACGCGCAAGACUUUAAUUUAUCACUACGAAAUCUUGAGAUCGGGCGUUCGACUCACCACCGGGAGAUUUUUUCCUCGAGCAA [G25C G78A C81A]
CUCUCGGUAGCCAAGUUGGUUUAACGCGCAAGACUUUAAUUUAUCACUACGAAAUCUUGAGAUCGGGCGUUCGACUCCCCCCCGGGAGAUUUUUUCCUCGAGCAA [G25C G78C]
CUCUCGGUAGCCAAGUUGGUUUAACGCGCAAGACUUUAAUUUAUCACUACGAAAUCUUGAGAUCGGGCGUUCGACUCGCCCCCGCGAGAUUUUUUCCUCGAGCAA [G25C G85C]
CUCUCGGUAGCCAAGUUGGUUUAACGCGCAAGACUUUAAUUUAUCACUACGAAAUCUUGAGAUCGGGCGUUCGACUCGCCCCCGGGAAAUUUUUUCCUCGAGCAA [G25C G88A]
CUCUCGGUAGCCAAGUUGGUUUAACGCGCAAGACUUUAAUUUAUCACUACGAAAUCUUGAGAUCGGGCGUUCGACUCGCCCCCGGGACAUUUUUUCCUCGAGCAA [G25C G88C]
CUCUCGGUAGCCAAGUUGGUUUAACGCGCAAGACUUUAAUUUAUCACUACGAAAACUUGAGAUCGGGCGUUCGACUCGCCCCCGGGAGAUUUUUUCCUCGAGCAA [G25C U55A]
CUCUCGGUAGCCAAGUUGGUUUAACGCGCAAGACUUUAAUUUAUCACUACGAAAACUUGAGAUCGGGCGUUCGACUCGCUCCCGGGAGAUUUUUUCCUCGAGCAA [G25C U55A C80U]
CUCUCGGUAGCCAAGUUGGUUUAACGCGCAAGACUUUAAUUUAUCACUACGAAACCUUGAGAUCGGGCGUUCGACUCGCCCCCGGGAGAUUUUUUCCUCGAGCAA [G25C U55C]
CUCUCGGUAGCCAAGUUGGUUUAACGCGCAAGACUUUAAUUUAUCACUACGAAAGCUUGAGAUCGGGCGUUGGACUCGCCCGCGGGAGAUUUUUUCCUCGAGCAA [G25C U55G C72G C82G]
CUCUCGGUAGCCAAGUUGGUUUAACGCGCAAGACUUUAAUUUAUCACUACGAAAUCCUGAGCUCGGGCGUUCGACUCGCCCCCGGGAGAUUUUUUCCUCGAGCAA [G25C U57C A62C]
CUCUCGGUAGCCAAGUUGGUUUAACGCGCAAGACUUUAAUUUAUCACUACGAAAUCCUGAGAUCGGGCGUUCGACUCGCCCCCAGGAGAUUUUUUCCUCGAGCAA [G25C U57C G84A]
CUCUCGGUAGCCAAGUUGGUUUAACGCGCAAGACUUUAAUUUAUCACUACGAAAUCUGGAGAUCGGGCGUUCGACUCGCCCCCGGGAGAUUUUUUCCUCGAGCAA [G25C U58G]
CUCUCGGUAGCCAAGUUGGUUUAACGCGCAAGACUUUAAUUUAUCACUACGAAAUCUUGAGAACGGGCGUUCGACUCGCCCCCGGGAGAUUUUUUCCUCGAGCAA [G25C U63A]
CUCUCGGUAGCCAAGUUGGUUUAACGCGCAAGACUUUAAUUUAUCACUACGAAAUCUUGAGACCGGGCGUUCGACUCGCCCCCGGGAGAUUUUUUCCUCGAGCAA [G25C U63C]
CUCUCGGUAGCCAAGUUGGUUUAACGCGCAAGACUUUAAUUUAUCACUACGAAAUCUUGAGAUCGGGCGGUCGACUCGCCCCCGGGAGAUUUUUUCCUCGAGCAA [G25C U70G]
CUCUCGGUAGCCAAGUUGGUUUAACGCGCAAGACUUUAAUUUAUCACUACGAAAUCUUGAGAUCGGGCGUCCGACUCGCCCCCGGGAGAUUUUUUCCUCGAGCAA [G25C U71C]
CUCUCGGUAGCCAAGUUGGUUUAACGCGCAAGACUUUAAUUUAUCACUACGAAAUCUUGAGAUCGGGCGUCCGGCUCGCCCCCGGGAGAUUUUUUCCUCGAGCAA [G25C U71C A74G]
CUCUCGGUAGCCAAGUUGGUUUAACGCGCAAGACUUUAAUUUAUCACUACGAAAUCUUGAGAUCGGGCGUUCGACGCGCCCCCGGGAGAUUUUUUCCUCGAGCAA [G25C U76G]
CUCUCGGUAGCCAAGUUGGUUUAAUGCGCUAGACUUUAAUUUAUCACUACGAAAUCUUGAGAUCGGGCGUCCGACUCGCCCCCGGGAGAUUUUUUCCUCGAGCAA [G25U A30U U71C]
CUCUCGGUAGCCAAGUUGGUUUAAUGCGCAGGACUUUAAUUUAUCACUACGAAAUCUUGAGAUCGGGCGUUCGACUCGCCCCCGGGAGAUUUUUUCCUCGAGCAA [G25U A31G]
CUCUCGGUAGCCAAGUUGGUUUAAUGCGCAUGACUUUAAUUUAUCACUACGAAAUCUUGAGAUCAGGCGUUCGACUCGCCCGCGGGAGAUUUUUUCCUCGAGCAA [G25U A31U G65A C82G]
CUCUCGGUAGCCAAGUUGGUUUAAUGCGCAAGCCUUUAAUUUAUCACUACGAAAUCUUGAGAUCGGGCGUUCGACUCGCCCCCGGGUGAUUUUUUCCUCGAGCAA [G25U A33C A87U]
CUCUCGGUAGCCAAGUUGGUUUAAUGCGCAAGACUUUAAUUUAUCACUACGAAAUCUUGCGAUCGGGCGUUCGACUCACCCCCGGGAGAUUUUUUCCUCGAGCAA [G25U A60C G78A]
CUCUCGGUAGCCAAGUUGGUUUAAUGCGCAAGACUUUAAUUUAUCACUACGAAAUCUUGGGAUCGAGCGUUCGACUCGCCCCCGGGAGAUUUUUUCCUCGAGCAA [G25U A60G G66A]

Source: the RNAGym collection of RNA variant scans (doi:10.1101/gad.245936.114)
